± gives the standard deviation of the averaged measurements. In all, about 33,000 sequences were measured (“E-score (dimensionless, -0.5 to 0.5)”: median about -0.046, highest 2% from about 0.36 on). The list shows a part of the results.
These sequences were tested on T1, SpTbr T-box DNA-binding domain (GST fusion) (assay: PBM E-score of 8-mer (E-score (dimensionless, -0.5 to 0.5)); Tbr is Tbrain of the sea star Patiria miniata (Pm) or the sea urchin Strongylocentrotus purpuratus (Sp); higher = stronger binding preference; most listed sequences are background and not binding sites). Settings: the construct has about 5 more residues each side.
T1 sequence: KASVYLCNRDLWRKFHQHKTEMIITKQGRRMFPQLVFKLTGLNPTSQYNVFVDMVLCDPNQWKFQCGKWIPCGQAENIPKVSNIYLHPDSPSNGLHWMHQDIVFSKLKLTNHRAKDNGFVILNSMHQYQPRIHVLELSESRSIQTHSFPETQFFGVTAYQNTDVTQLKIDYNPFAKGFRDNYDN
Summary of the method: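 GST-fused Tbr T-box DNA-binding domains (the whole T-box plus about five flanking residues) were expressed in BL21 E. coli at 20 °C and purified by glutathione affinity chromatography. Universal Agilent oligonucleotide arrays were made double-stranded by primer extension, incubated with 200 nM protein in PBS (pH 7.5), then scanned and quantified. Every ungapped 8-mer was scored from probe intensities. The Universal PBM Analysis Suite gave each word an enrichment E-score, averaged over duplicate arrays.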

Sequence | PBM E-score of 8-mer
AAGATTAT | -0.153 ± 0.029
CCGGGTCC | 0.0397 ± 0.02
TAATACAA | -0.139 ± 0.019
GATTATTA | -0.163 ± 0.026
AATTTAGA | 0.0191 ± 0.045
GTTGCAGA | -0.0699 ± 0.046
TTCTACAA | -0.257 ± 0.005
TCCCTTAA | -0.153 ± 0.04
TAGGTATA | 0.106 ± 0.024
AAATATGC | -0.134 ± 0.046
GAATGGAC | -0.0456 ± 0.02
CCGTATTA | -0.268 ± 0.036
AAATCCCA | -0.00587 ± 0.045
CCAACCGC | -0.0294 ± 0.1
GGTGGCTA | -0.134 ± 0.12
TCCGCCCA | 0.112 ± 0.038
CTTAAATC | -0.214 ± 0.036
TCAAGTAA | -0.033 ± 0.016
GCGTTCAA | -0.166 ± 0.13
ATAAGCCG | -0.168 ± 0.056
CTCGTTCA | 0.0405 ± 0.033
CCAGTTAC | -0.149 ± 0.009
ATCCCAGG | -0.18 ± 0.078
CCTAAAAA | -0.0876 ± 0.039
TGGCAAAA | 0.0945 ± 0.032

Sequence | PBM E-score of 8-mer
ACAATTAT | -0.0335 ± 0.045
ATTTGTGG | 0.075 ± 0.012
ACCAGACT | -0.1941 ± 0.0019
ACGAAGTG | 0.229 ± 0.016
ACAGCCTA | 0.0885 ± 0.08
ATCAACTG | -0.0351 ± 0.043
AAGAGGTC | -0.128 ± 0.01
GCCGTTAA | 0.105 ± 0.032
ACATAGCG | -0.0402 ± 0.04
CTTTGCAC | 0.212 ± 0.03
CAGGAGAC | -0.112 ± 0.056
GCATCCTA | -0.126 ± 0.048
GAAGAGCC | -0.127 ± 0.028
AGTCCGTA | -0.286 ± 0.028
CCCCTATC | -0.132 ± 0.09
ACCGCACG | -0.00319 ± 0.0013
ACTCGCAC | 0.394 ± 0.035
ATATAGTG | 0.074 ± 0.0098
CCCGTCGG | 0.0199 ± 0.048
GTTCACTA | -0.0482 ± 0.02
CAATTGCG | 0.12 ± 0.013
AATGTTCC | -0.162 ± 0.021
AGGTCATC | 0.0583 ± 0.033
GCCCCAAC | 0.133 ± 0.059
AAAGGTTC | -0.076 ± 0.017

Sequence | PBM E-score of 8-mer
TCAGTGCA | -0.101 ± 0.038
AAGGGAAG | -0.247 ± 0.0075
CTTGGTCC | -0.164 ± 0.035
CACAACAG | 0.198 ± 0.0064
AGAATACG | -0.14 ± 0.0038
GAACACAC | 0.209 ± 0.017
CAGCAGGA | -0.254 ± 0.023
AACCGGGA | -0.0882 ± 0.057
CAATGGTC | -0.185 ± 0.041
CAAATCCG | -0.119 ± 0.048
AAGGTGTA | 0.394 ± 0.023
CACTGCCA | 0.17 ± 0.038
AAAGCATT | -0.0192 ± 0.029
CCATGCAA | -0.101 ± 0.0018
GCGACTAC | 0.055 ± 0.036
ACAACTCC | 0.182 ± 0.015
ACTGGCTG | -0.0323 ± 0.042
GGGGGACC | -0.185 ± 0.096
CGATCTAA | -0.0809 ± 0.0036
AACCCAGT | -0.292 ± 0.062
AGAAGTTC | -0.0174 ± 0.053
CTATACGC | -0.261 ± 0.0047
CTGCTTCC | -0.139 ± 0.054
ATAATGGC | 0.0226 ± 0.052
GTCGAAAA | -0.0421 ± 0.02

Sequence | PBM E-score of 8-mer
AATGCTCC | 0.0107 ± 0.031
AGCCTGGG | -0.271 ± 0.052
CAACCTAG | -0.0248 ± 0.069
CAGTCCCA | -0.00619 ± 0.015
ATCCGGGG | 0.0212 ± 0.048
AATTAACA | 0.244 ± 0.035
TGGCGACA | 0.326 ± 0.004
TAAAACTA | -0.00768 ± 0.057
AGCTGTGA | 0.393 ± 0.0083
CTTTAGTA | -0.0569 ± 0.065
AGAATGAT | 0.0861 ± 0.0031
AAGTACTC | -0.0747 ± 0.031
CAATAGTA | -0.203 ± 0.068
AAATCCAG | -0.026 ± 0.028
GTTCGTAA | -0.154 ± 0.093
GTTGTCCA | 0.0924 ± 0.018
GACCAGGC | 0.0346 ± 0.039
ACGCTTAT | 0.0247 ± 0.035
AGATTAGC | 0.0489 ± 0.043
GTGCAGAA | 0.0173 ± 0.025
AGAGACAG | -0.19 ± 0.0077
ATAGGGTA | 0.103 ± 0.052
GAGTCCTA | -0.117 ± 0.0018
AAGGTCAA | -0.186 ± 0.022
AACTCCAC | 0.145 ± 0.025

Sequence | PBM E-score of 8-mer
GCAGAGCA | -0.245 ± 0.044
CTTGCGAC | 0.27 ± 0.012
ATTTGGAA | -0.169 ± 0.095
TAATTCCA | -0.186 ± 0.081
CTAGGATC | -0.255 ± 0.035
GCTTAACA | 0.169 ± 0.073
CGGCCCCA | -0.0162 ± 0.12
ATCGAGCC | -0.119 ± 0.01
TCGGTGCA | -0.0526 ± 0.055
CTCACATA | 0.157 ± 0.034
TAGTGGAA | 0.058 ± 0.077
TGAAGGCA | -0.14 ± 0.031
CATGCATA | -0.219 ± 0.025
CGGCGATC | -0.0987 ± 0.068
CCGGCAGA | -0.199 ± 0.035
GCGCCGGA | 0.00717 ± 0.07
CACGAGAA | 0.209 ± 0.031
GACCTAGC | -0.00539 ± 0.06
GCGGTTAA | -0.00135 ± 0.0032
CTCGTGAA | 0.307 ± 0.02
CCATCGGA | -0.285 ± 0.055
GCTTTTAC | -0.0958 ± 0.063
GTGAACGA | 0.254 ± 0.029
AGAGGCCG | -0.067 ± 0.071
ATATAAAA | -0.0476 ± 0.066

Sequence | PBM E-score of 8-mer
CCGGCACA | -0.0242 ± 0.055
ACGGTTTA | 0.0625 ± 0.042
ACTTATCT | 0.019 ± 0.058
ATTGATGC | 0.0185 ± 0.0036
GCATAACA | 0.191 ± 0.034
CGATCGAG | -0.0942 ± 0.06
CTGAATCA | -0.144 ± 0.036
GCATGGAC | -0.256 ± 0.056
CAGACCGG | -0.142 ± 0.043
CGAGACAC | 0.121 ± 0.082
GTTGTTTA | 0.0875 ± 0.017
AGGCCAAC | -0.0875 ± 0.028
ACTCTAGA | 0.0954 ± 0.0087
ATCTTGGA | -0.0268 ± 0.014
GCGGCCGC | 0.0117 ± 0.081
ACGAAGTC | 0.00736 ± 0.1
ACACTCAT | 0.307 ± 0.012
CCCTAATC | -0.0644 ± 0.02
CATGCCCA | -0.0982 ± 0.076
ACGAAAGG | -0.0612 ± 0.01
ATAAACGA | -0.135 ± 0.057
CAACGACG | 0.0694 ± 0.038
AGCGTGTG | 0.21 ± 0.06
AACCGTTG | 0.148 ± 0.026
CGTGGACA | 0.0466 ± 0.017

Sequence | PBM E-score of 8-mer
ACGGTCGA | -0.0241 ± 0.073
CGCATGCG | -0.047 ± 0.027
ACAGGGCC | -0.14 ± 0.03
CTACAGCC | -0.252 ± 0.016
CTAGGAAC | -0.0215 ± 0.064
AAAACTGC | 0.0893 ± 0.035
AAAGCCGT | 0.0766 ± 0.0087
CTGAATGA | -0.0898 ± 0.011
GCACGGGC | -0.0971 ± 0.075
ATCTTTTA | -0.00485 ± 0.06
ACGCGTCT | 0.118 ± 0.014
GACGTCAA | 0.0971 ± 0.011
GCAAGTGC | 0.282 ± 0.021
AACCCTAA | -0.25 ± 0.026
ATAGAAGG | -0.00979 ± 0.046
AGCCCCTG | -0.3222 ± 0.0025
AGTGCCCG | 0.0163 ± 0.049
CTGCGCTC | 0.0242 ± 0.021
AACGTAAA | -0.162 ± 0.021
ATGATGTG | 0.244 ± 0.0031
ATAGGTCC | -0.0911 ± 0.074
AGATTTTC | -0.0543 ± 0.051
